Source: a collection of fitness landscapes (doi:10.1016/j.celrep.2020.107928)
Whole data set: some 81,000 sequences, median “one-hybrid fitness for binding NBS DNA” near -0.1, cut for the highest 2% near 0.36. Some of the results follow.

B1: Caulobacter ParB omega fusion; a variant is named by its letters at X, in order, B8GW30 (parent)
chain: MESVVVGEPGMSEGRRGLGRGLSALLGEVDAAPAQAPGEQLGGSREAPIEILQRNPDQPRRTFREEDLEDLSNSIREKGVLQPILVRPSPDTAGEYQIVAGERAWRAAQRAGLKTVPIMVRELDDLAVLEIGIIENVQRADLNVLEEALSYKVLMEKFERTQENIAQTIGKSXSHVANXMRLLXLPDEVQSYLVSGELTAXHARAIAAAADPVALAKQIIEGGLSVRETEALARKAPNLSAGKSKGGRPPRVKDTDTQALESDLSSVLGLDVSIDHRGSTGTLTITYATLEQLDDLCNRLTRGI

Variants of: B1
Test: one-hybrid fitness for binding NBS DNA (the Noc-binding site; scaled: cognate 1, non-cognate 0); higher = stronger binding
Conditions: with NBS DNA site
Method in brief: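 Fitness is the rescaled log change in variant-to-wild-type read ratio, measured by Illumina sequencing of plasmids before and after bacterial one-hybrid selection. The scale puts cognate at 1 and non-cognate at 0. Selection of Caulobacter ParB libraries, four specificity codons randomised, took place in E. coli USO with a HIS3 reporter, site 19 bp from the promoter, over 48 hours at 37°C on M9-minus-histidine with 0.1 mM IPTG and 5 mM 3-AT.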

one-hybrid fitness for binding NBS DNA, 0.301:
RRLC

one-hybrid fitness for binding NBS DNA, ≤ 0.2:
RPQP
AGAA
PYHN
ATVA
SGKT
PRIR
RDSC
THQV
HKPW
TIRS
MTAL
SACI
HPGY
ANSN
SHIE
TKMS
CGFS
LRSA
HTTA
NVPS
KMMT
HQKS
IHHR
ICTG
TPIT
WWMS
HHFR
QAAM
GLLT
QEYC
LAMN
CSEP
QVPY
HSSG
NERG
FLPT
SPLM
EMRY
WQWG
TLVY
TRTH
TEQR
MSFM
HRIF
VNGR
RGEN
NCHA
KVPC
IGNR
GLKH
LAAY
TPVG
NTND
FRWG
SLPT
ISAS
AIDR
LAFC
ALHG
YTDT
PDYC
AVSR
WQAV
NCPM
EHTN
RKMV
YMKR
ISIM
EAKS
KEQG
KVGS
NMKS
RFEY
CCLD
LAMT
KHAD
RNYD
STDV
QTWE

one-hybrid fitness for binding NBS DNA, 0.405:
QTRE

one-hybrid fitness for binding NBS DNA, 0.624:
VRRR

one-hybrid fitness for binding NBS DNA, 0.396:
QLAT

one-hybrid fitness for binding NBS DNA, 0.987:
QRQR
